Results taken from PubChem BioAssay AID463173 (ICCB-Longwood Screening Facility, Harvard Medical School, 2010).
Screen size: about 52,000 compounds; about 1,700 (3.3%) were called active. Cut-off read from the data, not from the text of the source: active = survival mostly below about 52% (no sharp cut-off); inactive = mostly above about 56%. Some of the results follow.

What follows are compounds tested on Wild type (assay: growth inhibition of S. aureus wild type versus tarO mutant, primary screen, teichoic acid synthesis inhibitors, RN4220, OD600 (AID 463173)). Settings: S. aureus RN4220 wild type/DeltatarO growth, OD600, 18 h, stronger effect = lower value, screened at 18.75 µg/mL (by protocol).

Structure (SMILES) | survival
COc1cc(CCC(=O)NCc2ccc3c(c2)CCN3C(=O)c2ccc(F)cc2)cc(OC)c1OC | inactive: 100%
CCCC(C)C(=O)Nc1ccc(OC)cc1 (stereo unspecified) | inactive: 120%
CCC(=O)Nc1ccc(C(=O)CSc2nnc(-c3ccc(O)cc3)n2CC2CCCO2)cc1 (stereo unspecified) | inactive: 103%
CC1CCN(C(=O)CN(C)S(=O)(=O)c2ccc3ccccc3c2)CC1 | inactive: 115%
CCOC(=O)c1c(SCC(=O)Nc2cc(Cl)cc(Cl)c2)nc(=O)[nH]c1C | inactive: 55%
Cc1ccc(-c2nnc(N(CC(C)C)C(=O)c3ccco3)s2)cc1 | inactive: 105%
COc1ccc(-c2nc3c(c(SCC(=O)N(C)c4ccccc4)n2)Cc2cc(C)ccc2O3)cc1 | inactive: 85%
CCCCNC(=O)C1CCC(CNS(=O)(=O)c2ccc(NC(C)=O)cc2)CC1 (stereo unspecified) | inactive: 70%
COc1ccc2ncc3c(-c4ccc(C)c(C)c4)nn(CC(=O)NC4CCCC4)c3c2c1 | inactive: 95%
CCN(CC)c1ccc(NC(=O)Cn2nc(C)n3cccc3c2=O)c(C)c1 | inactive: 88%
Cc1ccc2nc(NCc3ccc(F)cc3)c3nncn3c2c1 | inactive: 132%
Cc1nc(-c2ccc(S(=O)(=O)NCc3ccc(N(C)C)cc3)cc2)co1 | inactive: 73%
CCc1ccccc1NC(=O)CCc1c(C)nn(-c2ccc(N3CCOCC3)nn2)c1C | inactive: 140%
CCc1nn2c(=O)cc(COC(=O)c3ccccc3NC(=O)C3CCCCC3)nc2s1 | inactive: 71%
COc1ccc(-c2nc3n(c(=O)c2C#N)CCS3)cc1 | inactive: 98%
CCc1ccc(CNCc2c(C(=O)O)n(Cc3ccc(F)cc3Cl)c3cc(OC)ccc23)cc1 | inactive: 107%
COc1cc2ccccc2cc1C(=O)N1CCN(c2nc3ccc(F)cc3s2)CC1 | inactive: 72%
O=C(c1ccc(F)cc1)n1nc(-c2ccccc2)nc1NCc1ccc(F)cc1 | inactive: 19%
CCc1ccc2[nH]c(=O)c(C(c3nnnn3Cc3ccccc3)N(Cc3ccccc3)Cc3ccco3)cc2c1 (stereo unspecified) | inactive: 113%
CCC(Sc1nc2ccccc2c2nc(-c3ccccc3)nn12)C(=O)Nc1cccc(OC)c1 (stereo unspecified) | inactive: 67%
CCSc1nnc(C2CCCN(CC(=O)N3CCN(c4ccccc4)CC3)C2)n1CC (stereo unspecified) | inactive: 101%
O=c1oc2ccccc2cc1-c1nnc(-c2cccc(Cl)c2)o1 | inactive: 107%
Cc1c(Cl)cccc1NC(=O)CCN1C(=O)c2ccccc2Sc2ncccc21 | inactive: 86%

Structure (SMILES) | survival
COC(=O)c1c(NC(=O)CS(=O)(=O)c2ccc(C)cc2)sc2c1CCCC2 | active: -6%
Cc1ccc2oc(=O)c3cnn(CC(=O)N4CCN(c5ccccc5)CC4)c3c2c1 | inactive: 113%
CCC(C)NC(=O)CSc1nc2n[nH]c(C)c2c(=N)n1-c1ccc(C)c(Cl)c1 (stereo unspecified) | inactive: 80%
CCN(C(=O)Cn1nnc2sc(-c3ccccc3)cc2c1=O)c1cccc(C)c1 | inactive: 80%
Cc1cc(NC(=O)CCNS(=O)(=O)c2ccc3c(c2)oc(=O)n3C)ccc1Br | inactive: 72%
CCN(CC)C(=O)c1cc(-c2ccc(Cl)cc2)on1 | inactive: 51%
COc1ccc(NC(=O)CCn2c(=O)c3cccn3c3ccccc32)c(OC)c1 | inactive: 73%
CCC1CN(C(=O)Nc2cccc3c2CCCC3)c2ccccc2O1 (stereo unspecified) | inactive: 92%
O=C(Nc1nnc(S(=O)(=O)N2CCCc3ccccc32)s1)c1ccccc1 | inactive: 31%
O=C(NCCC(c1ccccc1)c1ccco1)c1cccs1 (stereo unspecified) | inactive: 113%
COC(=O)c1cnn2c(C)c(Cc3c(C)cc(C)cc3C)c(C)nc12 | inactive: 89%
CCN(CC)S(=O)(=O)c1ccc2c(c1)c(=O)c(C(=O)N1CCN(c3cccc(C)c3)C(C)C1)cn2C (stereo unspecified) | inactive: 98%
Cc1ccc(CNC(=O)CN(c2ccc(C)cc2)S(=O)(=O)c2c(C)nn(C)c2C)cc1 | inactive: 93%
Cc1ccc2c(=O)cc(C(=O)Nc3ccc(S(=O)(=O)N(C)Cc4ccccc4)cc3)oc2c1 | inactive: 112%
CCCCn1c(C(C)NC(=O)c2ccccc2)nc2ccccc21 (stereo unspecified) | inactive: 123%
CCNc1ccc2c(Cl)cc(=O)oc2c1 | inactive: 112%
CC(=O)c1ccc(NC(=O)CN(C)S(=O)(=O)c2cccc3nsnc23)cc1 | inactive: 84%
COc1ccccc1-c1cc2nc(C)c(CCC(=O)NCc3cccc(Cl)c3)c(C)n2n1 | inactive: 112%
c1ccc(CN2CCC(NC3CCCC3)CC2)cc1 | inactive: 109%
O=C(COc1cccc(-n2cnnn2)c1)NC1CCCCC1 | inactive: 111%
CCOC(=O)C1CCCN(CCC(=O)Nc2cccc(C)c2)C1 (stereo unspecified) | inactive: 94%
COc1ccc(N2CC(NC(=O)C3CC3)CC2=O)cc1OC (stereo unspecified) | inactive: 102%
CC(C)CCn1c(=O)c2sccc2n2c(CCCC(=O)NCc3ccc(F)cc3)nnc12 | inactive: 90%

Structure (SMILES) | survival
Cc1c(C(=O)Nc2ccc(F)cc2)sc2nc[nH]c(=O)c12 | inactive: 127%
CCc1ccccc1NC(=O)c1cc(S(=O)(=O)N2CCCc3ccccc32)ccc1F | inactive: 63%
Cc1cccc(N2CCN(C(=O)CCn3c(=O)c4cccn4c4cccnc43)CC2)c1C | inactive: 58%
CCOc1ccc(N(C)C(CNS(=O)(=O)c2ccccc2)c2ccccc2)cc1 (stereo unspecified) | inactive: 90%
O=C(COc1ccccc1)Nc1cccc(-c2cn3cccnc3n2)c1 | inactive: 81%
Fc1cccc(-n2ncc3c2ncn2nc(-c4ccccc4Cl)nc32)c1 | inactive: 86%
O=C(Cn1c(=O)c2cccn2c2ccc(F)cc21)N1CCN(c2ccc(F)cc2)CC1 | inactive: 90%
CCOc1ccccc1CNC(=O)c1cccn1-c1nnc(N2CCCCC2)s1 | inactive: 129%
Cc1ccn2c(=O)c(C(=O)NC(C)c3ccccc3)c(O)nc2c1 (stereo unspecified) | inactive: 81%
CCOc1ccc(C(=O)Nc2cc(-c3nc4ccccc4s3)ccc2OC)cc1 | inactive: 163%
O=C(CN(Cc1cccs1)C(=O)c1csnn1)NC1CCCC1 | inactive: 106%
Cc1cccnc1NC(=O)c1c(O)c2cc(F)cc3c2n(c1=O)C(C)CC3 (stereo unspecified) | inactive: 114%
COc1ccc(C2=C(Nc3ccc(C)c(C)c3)c3ccccc3C2=O)cc1 | inactive: 90%
COc1ccccc1N1CCN(C(=O)c2cc(-c3ccccc3O)on2)CC1 | inactive: 66%
N#Cc1cccc(NC(=O)c2cc3c(s2)-c2ccc(Cl)cc2SC3)c1 | inactive: 97%
COc1ccc(CCNC(=O)c2ccc3c(c2)N(Cc2ccc(F)cc2)CCS3)cc1OC | inactive: 141%
Cc1nc(-c2ccc(S(=O)(=O)Nc3ccc(C)c(N(C)C)c3)cc2)co1 | inactive: 68%
CCC(=O)Nc1nc2cc(Cl)c(C)cc2s1 | inactive: 110%
CCc1nn(CC(=O)NCc2ccccc2Cl)c(=O)c2cccn12 | inactive: 86%
CCCN1C(=O)c2ccccc2NC1c1ccc(C)cc1 (stereo unspecified) | inactive: 112%
O=C(COc1ccccc1[N+](=O)[O-])Nc1ccc(-c2nc3ccccc3s2)cc1 | inactive: 94%
Cc1cc(C)cc(NC(=O)c2cccc3c2C(=O)N(C2CCCCC2)C3)c1 | inactive: 42%
COc1ccc(S(=O)(=O)c2cc(NS(=O)(=O)c3ccc(Cl)cc3)c(C)c(C)c2O)cc1 | inactive: 65%

Structure (SMILES) | survival
COc1ccc(NC(=O)c2cnc[nH]2)cc1 | inactive: 150%
Cc1nc(SCC(=O)Nc2ccccc2F)[nH]c(=O)c1Cc1ccccc1 | inactive: 101%
O=S(=O)(c1ccccc1)c1nc(-c2cccs2)oc1SCc1ccc(F)cc1 | inactive: 61%
Cc1ccc(NC(c2ccc(Cl)cc2)c2nnc(-c3cccc(F)c3)o2)cc1C (stereo unspecified) | inactive: 95%
COC(=O)c1ccc(NC(=O)CN2C(=O)c3cccc4cccc2c34)cc1 | inactive: 85%
COc1ccc(-c2cn3nc(SCC(=O)Nc4ccc(C)c(Cl)c4)ccc3n2)cc1 | inactive: 67%
Cc1[nH]c2ccc(-c3nnc(SCC(=O)N4CCc5ccccc54)o3)cc2c1C | inactive: 95%
COC(=O)CCNC(=O)N1CCN(c2nnc(C)c3c(C)n(-c4ccc(Cl)cc4)nc23)CC1 | inactive: 80%
COc1ccc(OC)c(CCNC(=O)c2c3c(nc4ccccc24)C(=O)N(C2CCCCC2)C3)c1 | inactive: 65%
COc1ccc(-c2noc(C3CC(=O)N(c4ccccc4)C3)n2)c(OC)c1 (stereo unspecified) | inactive: 78%
CCN(CCCNC(=O)c1cc(Nc2ccccc2OC)nc2ccccc12)c1cccc(C)c1 | inactive: 99%
O=S(=O)(NCC(Nc1ccc(Cl)cc1)c1ccccc1)c1ccccc1 (stereo unspecified) | inactive: 56%
COc1ccccc1-c1nnn(CC#N)n1 | inactive: 102%
Cc1cc(C)c(NC(=O)COc2ccc3c(C)cc(=O)oc3c2)c(C)c1 | inactive: 87%
O=C(CSc1nc2c([nH]c3ccccc32)c(=O)n1-c1ccc(Cl)cc1)N1CCCC1 | inactive: 75%
O=S(=O)(NCC1OCCc2ccccc21)c1ccccc1 (stereo unspecified) | inactive: 113%
CCOC(=O)Cn1c(=O)oc2cc(S(=O)(=O)N3CCN(c4ccc(C(C)=O)cc4)CC3)ccc21 | inactive: 81%
CCOc1ccc(S(=O)(=O)c2cn(Cc3cc(C)ccc3C)c3ccc(OCC)cc3c2=O)cc1 | inactive: 80%
COc1cccc(Nc2nc3cc(Cl)c(Cl)cc3nc2-n2nc(C)cc2C)c1 | inactive: 81%
COc1ccc(NC(=O)Cn2nc(C)c3nn(-c4ccc(Cl)cc4)c(C)c3c2=O)cc1 | inactive: 80%
CCOc1ccc(NC(=O)c2cc(S(=O)(=O)N3CCOCC3)ccc2F)cc1 | inactive: 71%
CCCOC(=O)c1ccc(Cn2nnc3sc4c(c3c2=O)CCC(C)C4)cc1 (stereo unspecified) | inactive: 77%
